{"source": "PubChem BioAssay AID1347073", "about": "(National Center for Advancing Translational Sciences (NCATS), 2019)", "note": "The campaign covered roughly 45,000 compounds. About 200 (0.44%) were called active. Inconclusive results (about 7%) are left out. Calls come from the whole dose curve; as a rule, active = well fitted activation curve with a large enough effect; inconclusive = small, poorly fitted or top-dose-only effect; inactive = no such curve, though single readings can be large or run the other way. This is one part of the list."}
{"assay": "qHTS of TDP-43 Inhibitors: NCGC Sytravon Library Screen; note: 0% is about no effect; nearly all actives have a fitted effect of over 55% in size", "conditions": "yeast TDP-43 toxicity rescue, BacTiter-Glo growth, 24 h; series mostly up to 46.1 µM; growth rescue (activation): at the top concentration", "method_in_brief": "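TDP-43-expressing yeast, pregrown in raffinose, seeded at OD600 0.02 in galactose medium with compound for 24 hr at 30 deg C. Growth read by BacTiter-Glo luminescence, so rescue of toxicity appears as activation.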"}
{"compound": "CCCCn1c(=NC(C)=O)c(C#N)cc2c(=O)n3cccc(C)c3nc21", "growth rescue (activation)": "inactive: -31.3%"}
{"compound": "Cc1c(OCC(=O)NC(Cc2c[nH]c3ccc(O)cc23)C(=O)O)ccc2c3c(c(=O)oc12)CCC3", "note": "(stereo not drawn)", "growth rescue (activation)": "inactive: 12.5%"}
{"compound": "COCCn1c(NCc2ccco2)nc2c1c(=O)[nH]c(=O)n2C", "growth rescue (activation)": "inactive: -0.989%"}
{"compound": "Cc1ncc(CO)c(/C=N/NC(=O)c2cc(Br)ccc2O)c1O", "growth rescue (activation)": "inactive: 3.39%"}
{"compound": "Cc1nc(SCC(=O)c2cc3ccccc3oc2=O)c(C#N)c(-c2cccs2)c1C(=O)Nc1ccccc1", "growth rescue (activation)": "inactive: -1.68%"}
{"compound": "CCC(CNC(=O)c1c(C)nn(-c2ccccc2)c1Cl)c1ccccc1", "note": "(stereo not drawn)", "growth rescue (activation)": "inactive: -5.69%"}
{"compound": "Cn1c(C(=O)O)c(CC(=O)Nc2ccc(F)cc2F)c2ccccc21", "growth rescue (activation)": "inactive: 16.9%"}
{"compound": "Cc1cc(N/N=C\\c2ccc(Br)cc2)nc(-n2nc(C)cc2C)n1", "growth rescue (activation)": "inactive: 4.8%"}
{"compound": "CCCC1NC(=S)NC(C)=C1C(C)=O", "note": "(stereo not drawn)", "growth rescue (activation)": "inactive: -9.16%"}
{"compound": "Cc1cc2oc(=O)c(CC(=O)O)c(C)c2c2occ(C(C)(C)C)c12", "growth rescue (activation)": "inactive: -6.75%"}
{"compound": "C=CCNC(=O)NC(=O)COC(=O)CC(NC(N)=O)c1ccc(Cl)cc1", "note": "(stereo not drawn)", "growth rescue (activation)": "inactive: 6.76%"}
{"compound": "CC(C)(O)C#Cc1ccc(CN2CCN(C3CCCCC3)C(CCO)C2)s1", "note": "(stereo not drawn)", "growth rescue (activation)": "inactive: -2.25%"}
{"compound": "O=C(NN1C(=O)C2C(C1=O)C1C=CC2C12CC2)c1ccccc1Cl", "note": "(stereo not drawn)", "growth rescue (activation)": "inactive: -0.211%"}
{"compound": "CC(=O)c1ccc(N(CC(=O)NCCc2ccccc2)C(=O)c2csnn2)cc1", "growth rescue (activation)": "inactive: 11.2%"}
{"compound": "O=C(/C=C/c1c(Cl)nc2ccccn12)N1CCN(c2ccccc2F)CC1", "growth rescue (activation)": "inactive: 24.2%"}
{"compound": "O=C(NC1CCCC1)C(=O)N(Cc1cccnc1)C(C(=O)NCc1ccco1)c1ccccc1F", "note": "(stereo not drawn)", "growth rescue (activation)": "inactive: -14.2%"}
{"compound": "CC(C1CC1)N(C(=O)NC1CCS(=O)(=O)C1)c1ccccc1", "note": "(stereo not drawn)", "growth rescue (activation)": "inactive: 15.4%"}
{"compound": "N#Cc1ccc(C(=O)OCC(=O)N2CCN(C(=O)c3ccco3)CC2)cc1", "growth rescue (activation)": "inactive: -1.22%"}
{"compound": "COC(=O)c1c(C)[nH]c(-c2csc(N)n2)c1C", "growth rescue (activation)": "inactive: 10.3%"}
{"compound": "Cc1cc(NC(=O)CSc2nc3ccccc3c(=O)n2-c2ccccc2)no1", "growth rescue (activation)": "inactive: 20.2%"}
{"compound": "CCOc1ccccc1N1CCN(C(=S)NCc2ccccc2)CC1", "growth rescue (activation)": "inactive: 23.9%"}
{"compound": "CN(C)CCCNc1ncnc2c1cnn2Cc1ccccc1Cl", "growth rescue (activation)": "inactive: 9.99%"}
{"compound": "O=C(Nc1ccc(CN2CCCCC2)cc1)c1sc2ccccc2c1Cl", "growth rescue (activation)": "inactive: -6.16%"}
{"compound": "COc1cc(NC(=S)N2CCC(C(N)=O)CC2)cc(OC)c1", "growth rescue (activation)": "inactive: 9.09%"}
{"compound": "O=C(NCCCc1nc2ccccc2n1Cc1ccc(Cl)cc1)c1ccco1", "growth rescue (activation)": "inactive: 4.2%"}
{"compound": "CCc1cccc(CC)c1NC(=S)Nc1ccccc1", "growth rescue (activation)": "inactive: 14.9%"}
{"compound": "CCc1cccc(C)c1NC(=O)CSc1nnc(N)s1", "growth rescue (activation)": "inactive: 9.53%"}
{"compound": "C=CCN=C1S/C(=C\\c2ccc(N(C)C)cc2)C(=O)N1CC=C", "growth rescue (activation)": "inactive: 6.48%"}
{"compound": "COCCNc1nc(NCc2ccccc2)nc2ccsc12", "growth rescue (activation)": "inactive: 14.5%"}
{"compound": "O=C(O)c1cccc(N2C(=O)c3ccc(C(=O)c4cccc([N+](=O)[O-])c4)cc3C2=O)c1", "growth rescue (activation)": "inactive: 9.27%"}
{"compound": "CO/N=C/c1cccn1-c1nccc(OC)c1C#N", "growth rescue (activation)": "inactive: -16.3%"}
{"compound": "COc1ccc(-c2nc(-c3ccccn3)nc(N3CCN(C)CC3)c2C#N)cc1", "growth rescue (activation)": "inactive: -4.62%"}
{"compound": "COc1ccc(S(=O)(=O)Cc2ccc(C(=O)NCCc3cc(OC)ccc3OC)o2)cc1", "growth rescue (activation)": "inactive: 4.87%"}
{"compound": "Cc1cc(NC(=O)CCC(=O)N(Cc2ccco2)C(C(=O)NC2CCCC2)c2ccccc2)no1", "note": "(stereo not drawn)", "growth rescue (activation)": "inactive: 11.8%"}
{"compound": "O=C(CN1C(=O)NC2(CCCC2)C1=O)NCCc1ccc(F)cc1", "growth rescue (activation)": "inactive: 1.51%"}
{"compound": "CC1(C)CC(=O)C(N=Nc2ccc(Cl)cc2)=C(O)C1", "growth rescue (activation)": "inactive: -7.77%"}
{"compound": "Cc1ccc(S(=O)(=O)Nc2cc(S(=O)(=O)N3CCCCC3)ccc2N2CCOCC2)cc1", "growth rescue (activation)": "inactive: -2.96%"}
{"compound": "CCc1ccccc1NC(=O)C1CCCN(c2nnc(-n3c(C)ccc3C)s2)C1", "note": "(stereo not drawn)", "growth rescue (activation)": "inactive: 7.52%"}
{"compound": "COc1ccccc1NC(=O)c1ccc(NS(=O)(=O)c2ccc(F)c(F)c2F)cc1", "growth rescue (activation)": "inactive: -15%"}
{"compound": "O=S(=O)(c1ccc(Cl)cc1)N1CCN(C(=S)Nc2ccc(F)c(Cl)c2)CC1", "growth rescue (activation)": "inactive: 10.5%"}
{"compound": "O=C(COC(=O)c1ccc(F)c(S(=O)(=O)N2CCOCC2)c1)NCc1ccc(F)cc1", "growth rescue (activation)": "inactive: 13.9%"}
{"compound": "CC(C)c1ccc(NC(=S)NN2CCOCC2)cc1", "growth rescue (activation)": "inactive: 10.9%"}
{"compound": "CCCCN1CC(O)=C(c2nc(-c3ccc(Br)cc3)cs2)C1=N", "growth rescue (activation)": "inactive: 5.17%"}
{"compound": "CC(OC(=O)C1CC1C)C(=O)Nc1ccc(Cl)cn1", "note": "(stereo not drawn)", "growth rescue (activation)": "inactive: 3.21%"}
{"compound": "O=C(CSc1n[nH]c(=O)n1C1CC1)NCc1ccccc1", "growth rescue (activation)": "inactive: -13.9%"}
{"compound": "CCn1c(SCC(=O)N/N=C/C(C)=C\\c2ccco2)nnc1-c1ccccc1", "growth rescue (activation)": "inactive: -2.22%"}
{"compound": "O=C(COC(=O)/C=C/c1ccco1)NCc1ccccc1Cl", "growth rescue (activation)": "inactive: 11.4%"}
{"compound": "CCN(CC)CCCN(Cc1cc2cc3c(cc2[nH]c1=O)OCCO3)C(=O)Nc1ccccc1", "growth rescue (activation)": "inactive: -15.3%"}
{"compound": "COc1ccc(Cc2nnc(N/N=C/c3ccc(O)cc3O)[nH]c2=O)cc1OC", "growth rescue (activation)": "inactive: 16.3%"}
{"compound": "CN(Cc1ccccc1)C(=O)CN1C(=O)NC(C)(c2ccc(Cl)cc2)C1=O", "note": "(stereo not drawn)", "growth rescue (activation)": "inactive: 5.75%"}
{"compound": "COC(=O)C1=C(C(C)=O)C(c2ccc(C(=O)OC)cc2)n2nnnc2N1", "note": "(stereo not drawn)", "growth rescue (activation)": "inactive: 10.5%"}
{"compound": "CC1(C)Cc2nc3[nH]c(=S)[nH]c(=O)c3cc2CO1", "growth rescue (activation)": "inactive: 18.9%"}
{"compound": "Cc1cccc2cc(C3CC(c4ccco4)=NN3C(=O)CCC(=O)O)c(Cl)nc12", "note": "(stereo not drawn)", "growth rescue (activation)": "inactive: 6.37%"}
